Results as given in PubChem BioAssay AID1460 (National Center for Advancing Translational Sciences (NCATS), 2008).
Values joined by “and” are separate entries in the source; they are usually repeats but may differ in a detail not shown here. Equal values may be shown once. Out of some 270,000 compounds screened, about 5,800 (2.1%) were called active. The inconclusive results got no clear call from the source; some entries with a clear call stand among them for comparison. Calls follow the shape of the dose curve; as a rule, active = well fitted inhibition curve with a large enough effect; inconclusive = small, poorly fitted or top-dose-only effect; inactive = flat fitted curve, though single readings scatter. Potencies of inconclusive entries are doubtful fits and often do not repeat.

Each molecule was assayed against Microtubule-associated protein tau (Homo sapiens) (UniProt P10636) (assay: qHTS for Inhibitors of Tau Fibril Formation, Thioflavin T Binding). Conditions: recombinant tau K18 P301L (four-repeat tau fragment), heparin-induced fibrillization, ThT fluorescence; series mostly up to 57.4 µM.
Summary of the method: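 Tau K18 P301L fragment (15 uM unlabeled plus 0.24 uM Alexa 594-labeled) in 100 mM sodium acetate pH 7 with compound, fibrillization induced by 20 uM heparin for 6 hr at 37 C. Thioflavin T (30 uM) added, fluorescence read after 1 hr (ex 450, em 510 nm).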
Also: nearly all actives have a fitted effect of over 55% in size.
Potency is read from the fitted curve at half-maximal effect; tags tell the direction and shape of the fitted curve.

Sequence of UniProt P10636 (P10636 whole entry, looked up, the tested form may be a part): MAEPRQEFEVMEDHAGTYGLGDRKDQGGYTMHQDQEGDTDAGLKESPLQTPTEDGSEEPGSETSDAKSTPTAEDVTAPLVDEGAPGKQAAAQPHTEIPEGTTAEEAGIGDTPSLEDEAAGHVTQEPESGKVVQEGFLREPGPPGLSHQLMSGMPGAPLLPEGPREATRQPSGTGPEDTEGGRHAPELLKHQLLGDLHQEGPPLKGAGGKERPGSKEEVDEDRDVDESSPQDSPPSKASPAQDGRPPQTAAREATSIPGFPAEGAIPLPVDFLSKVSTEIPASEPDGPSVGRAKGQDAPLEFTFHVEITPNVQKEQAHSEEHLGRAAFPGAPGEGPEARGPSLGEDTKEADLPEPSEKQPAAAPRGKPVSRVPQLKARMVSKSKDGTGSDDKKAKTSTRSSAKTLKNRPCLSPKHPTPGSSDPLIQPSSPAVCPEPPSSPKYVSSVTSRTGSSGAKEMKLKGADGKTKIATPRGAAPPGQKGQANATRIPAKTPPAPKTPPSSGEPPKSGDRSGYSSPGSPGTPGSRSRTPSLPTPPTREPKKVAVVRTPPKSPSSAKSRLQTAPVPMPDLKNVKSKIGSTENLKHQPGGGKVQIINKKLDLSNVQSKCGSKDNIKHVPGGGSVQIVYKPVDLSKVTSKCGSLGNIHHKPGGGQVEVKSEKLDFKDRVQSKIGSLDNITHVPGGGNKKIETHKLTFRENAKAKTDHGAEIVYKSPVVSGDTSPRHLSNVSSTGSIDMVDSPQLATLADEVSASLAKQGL

SMILES	Potency
Cc1ccc(-n2c(=O)[nH]c3cc(C(=O)NCCc4ccccc4)ccc3c2=O)cc1	inactive
C/C(=N\NC(=O)c1ccccc1Br)c1ccc(N2CCOCC2)cc1	inconclusive: 15.8 µM [inhibitor, partial curve, poor fit]
O=C(Nc1cccc(C(F)(F)F)c1)c1cccnc1NCCc1ccccc1	inactive
Cc1ccc2c(C)c(C(=O)NCC(c3ccc(Cl)cc3)N3CCOCC3)oc2c1 (stereo unspecified)	inconclusive: 28.2 µM [inhibitor, single point]
CCn1c(O)c(/C=C2\C=NN=C2c2ccc(C)cc2)sc1=S	inconclusive: 35.5 µM [inhibitor, single point]
CCOC(=O)c1ccc(NC(=O)CSc2nnc(-c3ccncc3)n2-c2ccccc2)cc1	inactive
N#CCCN(C(=O)CSc1ccc2c(c1)OCCO2)c1ccc(F)cc1	inconclusive: 0.282 µM [inhibitor, partial curve]
CCCc1nc2ccccc2c2nc(N)nn12	inactive
Cc1ccc(-c2nc(S(=O)(=O)c3ccc(C)cc3)c(SCC(=O)c3ccccc3)o2)cc1	inactive
Cc1ccc(-c2cc(C(=O)Nc3cc(C)on3)c3ccccc3n2)c(C)c1	inconclusive: 14.1 µM [inhibitor, partial curve]
CCOc1ccccc1C(=O)Nc1cc2c(cc1N1CCCCC1)n(C)c(=O)n2C	inconclusive: 6.31 µM [inhibitor, partial curve]
Cn1c(=O)c(C(=O)COC(=O)c2cc(C3CC3)nc3ccccc23)c(N)n(Cc2ccccc2)c1=O	inactive
CCOC(=O)C1=C(C)N=C2SC(C(=O)OC)=CC(=O)N2C1c1ccc(OC)cc1 (stereo unspecified)	inconclusive: 22.4 µM [inhibitor, single point]
CCCCCC(=O)Cc1cc(O)cc2c1C(=O)Oc1cc(O)c(C(=O)O)c(CCCCC)c1O2	inconclusive: 28.2 µM [inhibitor, single point]
O=[N+]([O-])c1nn(-c2ccc3c(c2)OCCO3)n(O)c1=NCCCO	inconclusive: 8.91 µM [inhibitor, partial curve, poor fit]
COc1cccc(NC(=O)CN(C)CC(=O)Nc2ccc(Cl)cc2[N+](=O)[O-])c1	inconclusive: 22.4 µM [inhibitor, single point]
O=c1ccc2ccc(Oc3ccc([N+](=O)[O-])cc3[N+](=O)[O-])cc2o1	inconclusive: 15.8 µM [inhibitor, partial curve]
CCCn1ccc2c(OCC(=O)Nc3ccc(C(F)(F)F)cc3)cccc2c1=O	inactive
Nc1ccc2oc3ccccc3c2c1	inconclusive: 7.94 µM [inhibitor, full curve]
Cc1cc(C)cc(NS(=O)(=O)c2ccc3[nH]cc(C(=O)NCc4ccco4)c(=O)c3c2)c1	inactive
O=c1[nH]c2ccc(NC(=S)NC3CCCCC3)cc2[nH]1	inconclusive: 39.8 µM [inhibitor, single point]
CC(C(=O)NCc1ccc(Cl)cc1)n1ccc2cc(S(=O)(=O)N3CCCC3)ccc21 (stereo unspecified)	inactive

SMILES	Potency
CN(C)CC(CCCCC(CN(C)C)C(=O)c1ccccc1)C(=O)c1ccccc1 (stereo unspecified)	inactive
COCCNC(=O)c1onc(CSc2ccc(C(C)C)cc2)c1C(=O)O	inactive
Cc1ccc(/C=N/N2CCN(c3ccccn3)CC2)o1	inconclusive: 15.8 µM [inhibitor, partial curve]
COc1ccc(OCC(=O)Nc2cccc(C(=O)Nc3ccccc3C(=O)O)c2)cc1	inconclusive: 17.8 µM [inhibitor, single point]
CSc1nnc2c(n1)OC(c1cccc(O)c1Cl)Nc1ccccc1-2 (stereo unspecified)	inactive
CC(C)OC(=O)c1c(NC(=O)c2cc3nc(-c4ccccc4)cc(C(F)(F)F)n3n2)sc2c1CCCC2	inconclusive: 10 µM [inhibitor, partial curve, poor fit]
Cc1cc(C)nc(NS(=O)(=O)c2ccc(NC(=O)c3ccc4c(c3)OCCO4)cc2)n1	inactive
Cc1cc(Nc2cccc(C(F)(F)F)c2)nc2ccc(NC(=O)c3cncc(Br)c3)cc12	inconclusive: 28.2 µM [inhibitor, partial curve, poor fit]
CN(C)S(=O)(=O)c1cccc(NC(=S)NN=C(Cc2ccccc2)Cc2ccccc2)c1	inactive
COc1ccc(/C=C/C(=O)NC(=S)NNC(=O)c2cc(OC)c(OC)c(OC)c2)cc1OC	inconclusive: 2.82 µM [inhibitor, full curve]
COc1ccc(-c2ccc(C(c3c(C)[nH][nH]c3=O)c3c(C)[nH][nH]c3=O)o2)c([N+](=O)[O-])c1	active: 7.94 µM
C=CCOc1ccc(C2C(C(=O)c3ccco3)=C(O)C(=O)N2CCCN(CC)CC)cc1 (stereo unspecified)	inactive
CCCCC(CC)Cn1c(Oc2ccccc2)nc2c1c(=O)n(C)c(=O)n2C (stereo unspecified)	inconclusive: 8.91 µM [inhibitor, partial curve]
CC(C)c1cnc2c(c1SCC(=O)Nc1cccc([N+](=O)[O-])c1)c(=O)n(C)c(=O)n2C	inactive
COc1ccc(/C=N/NC(=O)c2cc(O)c(O)c(O)c2)cc1Cn1cc([N+](=O)[O-])cn1	inconclusive: 11.2 µM [inhibitor, partial curve]
O=C(Nc1ccc(O)c(C(=O)O)c1)Oc1ccccc1	inconclusive: 12.6 µM [inhibitor, partial curve]
CCOP(=O)(OCC)C(Nc1cccc([N+](=O)[O-])c1)c1ccc(N(C)C)cc1 (stereo unspecified)	inconclusive: 7.08 µM [inhibitor, partial curve, poor fit]
[O-]/[N+](=C\c1cccc(Br)c1)c1ccccc1	inconclusive: 35.5 µM [inhibitor, partial curve]
Cc1cccc(NC(=O)CSc2nnc(-c3cc(C)n(-c4ccccc4)c3C)o2)c1C	inconclusive: 14.1 µM [inhibitor, partial curve]
C=CCc1cc(OC)ccc1OCC(O)CN1CCN(c2ccc(OC)cc2)CC1 (stereo unspecified)	inconclusive: 8.91 µM [inhibitor, partial curve] and inconclusive: 10 µM [inhibitor, partial curve]
CCOC(=O)Cc1nnc(NC(=O)CSc2nnc3c(n2)[nH]c2ccccc23)s1	inconclusive: 17.8 µM [inhibitor, partial curve]
C/C(=N\NC(=O)C(=O)Nc1cccc(Cl)c1C)c1ccncc1	inconclusive: 28.2 µM [inhibitor, partial curve]

SMILES	Potency
COc1ccc(/C=C2\CCC(C3CCCC3)C2=O)cc1Cn1cccn1 (stereo unspecified)	inconclusive: 20 µM [inhibitor, partial curve]
C/C=N/NC(=O)c1cc(Br)ccc1O	inconclusive: 10 µM [inhibitor, partial curve]
COc1cc(-c2nnc(SCC(=O)Nc3cccc(C#N)c3)o2)cc(OC)c1OC	inconclusive: 12.6 µM [inhibitor, single point]
COc1ccc(CC(=O)Nc2sc3c(c2C(=O)Nc2ccc(C)cc2)CCCCC3)cc1	inconclusive: 10 µM [inhibitor, partial curve, poor fit]
Cc1cc2c(c(/C=C/C(=O)c3ccccc3)c1)OC1(C=C2)Oc2ccccc2C(=O)N1C (stereo unspecified)	inconclusive: 20 µM [inhibitor, single point]
CCc1cccc(C)c1Nc1c(-c2cccc(O)c2)nc2sccn12	inconclusive: 35.5 µM [inhibitor, single point]
Cc1ccc(-c2cc(C(=O)NCCCn3ccnc3)c3cc(Br)ccc3n2)o1	inconclusive: 15.8 µM [inhibitor, partial curve]
Cc1[nH]c2ccccc2c1C1(O)C(=O)N(Cc2ccc(Cl)cc2)c2ccccc21 (stereo unspecified)	inconclusive: 28.2 µM [inhibitor, partial curve]
CCNC(=O)Oc1ccc[nH]c1=O	inconclusive: 14.1 µM [inhibitor, partial curve]
COc1ccc2c(c1)CCc1c-2nc2ccccc2c1N1CCOCC1	inconclusive: 15.8 µM [inhibitor, partial curve]
C/C(=N\N1CCN(Cc2ccccc2Cl)CC1)c1ccc([N+](=O)[O-])cc1	inconclusive: 12.6 µM [inhibitor, partial curve]
S=c1[nH]nc(CN2CCCCC2)n1Cc1ccccc1	inconclusive: 39.8 µM [inhibitor, single point]
COc1cc(NC(=O)CSc2nc3nc(C)c(Cc4ccccc4)c(C)n3n2)cc(OC)c1OC	inactive
CCc1nnc2n1N(C(C)=O)C(c1ccc(C(C)(C)C)cc1)=C(C(C)=O)S2	inconclusive: 8.91 µM [inhibitor, partial curve]
Cc1ccc(CCC(=O)Nc2ccc(S(N)(=O)=O)cc2)o1	inactive
COc1cc(C=C2C(=O)OC(C)(C)OC2=O)cc(Cl)c1OCC(=O)Nc1ccccc1	inactive
O=C(Nc1nc2ccccc2[nH]1)c1ccc(Cl)c([N+](=O)[O-])c1	inconclusive: 7.08 µM [inhibitor, partial curve]
CS(=O)(=O)Oc1ccc2c(c1)O/C(=C\C=C\c1ccccc1)C2=O	inconclusive: 2.82 µM [inhibitor, partial curve]
COc1ccc(N)cc1-n1c(C)ccc1C	active: 3.16 µM
Cc1cccn2c(CNC3CCCc4ccccc43)c(C(=O)N3CCCCC3)nc12 (stereo unspecified)	inactive
CCn1c(SCC(=O)NC(=O)NCc2ccco2)nc2sc(C)c(C)c2c1=O	inconclusive: 11.2 µM [inhibitor, partial curve]
Cc1ccc(/C=C/C(=O)NC2=NCCS2)cc1	inactive
